Assay results as given in the supplement of paper PMC7266297.
Counter-ions that a name gives are not always drawn. Some of the results follow. Most values come without repeats; read them as rough.

Tests used:
[1] = test system: KB-3-1; test: growth inhibition relative to DMSO control (SRB); cervical cancer cells: KB-3-1 is the parent and KB-V1 overexpresses MDR1; SRB is the sulforhodamine B stain; higher = more growth inhibition; conditions: 1 µM; 72 h
[2] = test system: KB-V1; test: as above; conditions: 1 µM; 72 h
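Further: Read-out is SRB optical density at 490 nm, with the control being wells given 0.5% DMSO vehicle, and compound added one day after cells were plated.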

Structure (SMILES) | growth inhibition [1] [%] | growth inhibition [2] [%]
CN(C)C/C=C/C(=O)Nc1cc2c(Nc3ccc(F)c(Cl)c3)ncnc2cc1O[C@H]1CCOC1 [Afatinib (BIBW2992)] | 91.2 | 73.2
COc1cc(NC(=O)c2ccccn2)ccc1Cl | 18.3 | 6.7
Cc1cccc(-c2[nH]ncc2-c2ccc3ncccc3n2)n1 | < 0 | < 0
O=C(C[S+]([O-])Cc1ccco1)NC/C=C\COc1cc(CN2CCCCC2)ccn1 (stereo not given) [Lafutidine] | 21.8 | 20.8
C[C@@H](c1ncncc1F)[C@](O)(Cn1cncn1)c1ccc(F)cc1F [Voriconazole] | 14.6 | 34
COc1ccc2c(c1)C(=O)N(CCc1ccc(S(=O)(=O)NC(=O)NC3CCCCC3)cc1)C(=O)C2(C)C [Gliquidone] | < 0 | < 0
O=C1NCCc2[nH]c(-c3ccncc3)cc21 | < 0 | 4.69
N#Cc1ccc2[nH]c(O)c(-c3ccc(CN4CCOCC4)cn3)c2c1 | < 0 | < 0
NC(=O)C(c1ccccc1)(c1ccccc1)[C@@H]1CCN(CCc2ccc3c(c2)CCO3)C1 [Darifenacin HBr] | 2.81 | 3.83
CCCc1nc(C)c2c(=O)nc(-c3cc(S(=O)(=O)N4CCN(CC)CC4)ccc3OCC)[nH]n12 [Vardenafil HCl Trihydrate] | 30.4 | 3.19
COC(=O)N[C@@H](C)CNc1nccc(-c2cn(C(C)C)nc2-c2cc(Cl)cc(NS(C)(=O)=O)c2F)n1 | 28.9 | < 0
Cc1ccc(S(=O)(=O)n2c(N)nc3ccccc32)cc1 [ML130 (Nodinitib-1)] | 11.9 | 11.9
CCCNC(=O)Nc1ccc(Oc2ncnc3cc(OC)c(OC)cc23)cc1Cl | 24.8 | 11.3
Cc1ccc(C(=O)N(CCCN)[C@@H](c2nc3cc(Cl)ccc3c(=O)n2Cc2ccccc2)C(C)C)cc1 | 98.7 | 93.7
COc1cc(Nc2c(C#N)cnc3cc(OCCCN4CCN(C)CC4)c(OC)cc23)c(Cl)cc1Cl [Bosutinib (SKI-606)] | 38.9 | 5.19
O=[N+]([O-])c1ccc2c(c1)S(=O)(=O)C=C2 [Stattic] | 79.2 | 36.5
COc1ccc(-c2cc3c(C)nc(N)nc3n([C@H]3CC[C@H](OCCO)CC3)c2=O)cn1 | 100 | 84.3
CN(C)[C@@H](CCOc1cccc2ccccc12)c1ccccc1 [Dapoxetine HCl] | 45.6 | 23
CNC[C@H](O)c1ccc(O)c(O)c1 [Epinephrine HCl] | < 0 | 4.47
N=C(N)NC(=N)NCCc1ccccc1 [Phenformin HCl] | 29.6 | 14.9
COc1ccc([C@]2(C#N)CC[C@@H](C(=O)O)CC2)cc1OC1CCCC1 [Cilomilast] | 13.2 | 34
COc1cc2c(cc1Cc1cccc(Cl)c1F)c(=O)c(C(=O)O)cn2[C@H](CO)C(C)C [Elvitegravir (GS-9137, JTK-303)] | 49.8 | 19.6
COc1cccc(C=NCCN=Cc2cccc(OC)c2[O-])c1[O-].[Cl-].[Mn+3] | 19.6 | 3.67
O=C(NNc1ccccc1)c1ccncc1 | 37.2 | 19.1

Structure (SMILES) | growth inhibition [1] [%] | growth inhibition [2] [%]
Cn1cc(-c2ccc3ncc(Cc4ccc5ncccc5c4)n3n2)cn1 | 100 | 100
NC(=O)Nc1cc(-c2cccc(F)c2)sc1C(=O)N[C@H]1CCCNC1 | 75.6 | 44.4
CS(=O)(=O)N1CCc2c(-c3cnc(N)nc3)nc(N3CCOCC3)nc21 | < 0 | 37.5
O=C(/C=C\n1cnc(-c2cc(C(F)(F)F)cc(C(F)(F)F)c2)n1)NNc1cnccn1 | 31.5 | 15.5
Cn1nnc2c(C(N)=O)ncn2c1=O [Temozolomide] | 43.9 | 38.6
CCN1CCC[C@H]1CNC(=O)c1cc(S(N)(=O)=O)ccc1OC [Levosulpiride] | < 0 | 17.8
COC1=CC(c2cc3ccccc3[nH]2)=N/C1=C\c1[nH]c(C)cc1C [Obatoclax Mesylate (GX15-070)] | 93.6 | 95.9
Cc1ccnc2c1NC(=O)c1cccnc1N2C1CC1 [Nevirapine] | 45.3 | 19.6
N[C@H]1C[C@@H]1c1ccc(-c2cccc(O)c2)cc1 | 17.4 | < 0
CC(C)C[C@H](NC(=O)[C@H](Cc1ccccc1)NC(=O)c1cnccn1)B(O)O [Bortezomib (PS-341)] | 22.9 | < 0
Cc1c(C(=O)NN2CCCCC2)nn(-c2ccc(Cl)cc2Cl)c1-c1ccc(I)cc1 | 23.6 | 40.2
CC(C)(F)C[C@H](N[C@@H](c1ccc(-c2ccc(S(C)(=O)=O)cc2)cc1)C(F)(F)F)C(=O)NC1(C#N)CC1 [Odanacatib (MK-0822)] | 53 | 31.5
Cc1cccc(C)c1OCC(=O)N[C@@H](Cc1ccccc1)[C@@H](O)C[C@H](Cc1ccccc1)NC(=O)[C@H](C(C)C)N1CCCNC1=O [Lopinavir] | 13 | 32.2
CC(C)C(=O)Oc1ccc(CO)cc1[C@H](CCN(C(C)C)C(C)C)c1ccccc1 [Fesoterodine Fumarate] | < 0 | 51.4
Nc1nccc(Oc2ccc(NC(=O)c3c[nH]cc(-c4ccc(F)cc4)c3=O)cc2F)c1Cl | < 0 | 51.4
Cc1cncc(CN2CCC(=C3c4ccc(Cl)cc4CCc4cccnc43)CC2)c1 [Rupatadine Fumarate] | < 0 | 13.6
CNCC[C@H](Oc1cccc2ccccc12)c1cccs1 [Duloxetine HCl] | 22.1 | 22.1
O=c1cc(N2CCOCC2)oc2c(-c3cccc4c3sc3ccccc34)cccc12 | < 0 | 0.495
CCOC(=O)[C@H](CCc1ccccc1)N[C@@H](C)C(=O)N1CCC[C@H]1C(=O)O [Enalapril Maleate] | 42.6 | 20.1
Cn1cc(C2=C(c3ccc(Cl)cc3Cl)C(=O)NC2=O)c2ccccc21 | 12.2 | 20.8
NC(=O)N1c2ccccc2CC(=O)c2ccccc21 [Oxcarbazepine] | 12.4 | 32.3
CC1(COc2ccc3c(c2)ncn3-c2ccc3cccc(N4CCC(N)CC4)c3n2)COC1 | < 0 | 9.38
NC(=O)c1cnc(N[C@@H]2CCCC[C@@H]2N)nc1Nc1cccc(-n2nccn2)c1 | 72.4 | 3.09
O=C(O)C(Cc1c[nH]c2ccccc12)N1C(=O)c2ccccc2C1=O (stereo not given) | 11.5 | 7.73

Structure (SMILES) | growth inhibition [1] [%] | growth inhibition [2] [%]
C[C@@H](Oc1cc(-n2cnc3ccc(CN4CCN(C)CC4)cc32)sc1C(N)=O)c1ccccc1C(F)(F)F | 57.7 | 88.8
C[C@@H]1C[C@H]2[C@@H]3CCC4=CC(=O)C=C[C@]4(C)[C@@]3(F)[C@@H](O)C[C@]2(C)[C@@]1(O)C(=O)CO [Dexamethasone (DHAP)] | 30.3 | 46.8
CC(C)(C)NC(=O)[C@H]1CC[C@H]2[C@@H]3CC[C@H]4NC(=O)C=C[C@]4(C)[C@H]3CC[C@]12C [Finasteride] | 35.2 | 38
CNCC[C@@H](Oc1ccccc1C)c1ccccc1 [Atomoxetine HCl] | < 0 | 4.8
COC[C@H](NC(=O)c1cnc(C)s1)C(=O)N[C@@H](COC)C(=O)N[C@@H](Cc1ccccc1)C(=O)[C@@]1(C)CO1 [Oprozomib (ONX 0912)] | 100 | 100
O=c1cc(-c2ccc(O)cc2)oc2cc(O)cc(O)c12 [Apigenin] | < 0 | < 0
CC(=O)c1cc([N+](=O)[O-])c(Sc2ccc(F)cc2F)s1 | < 0 | < 0
CCN1CCCC1CNC(=O)c1cc(S(=O)(=O)CC)c(N)cc1OC (stereo not given) [Amisulpride] | 11.6 | 33.3
O=C(O)CCCc1ccccc1 [Sodium Phenylbutyrate] | 8.08 | 18.3
O=C(O)c1cccnc1Nc1cccc(C(F)(F)F)c1 [Niflumic acid] | < 0 | 3.17
COCC[n+]1c2c(n(Cc3cnccn3)c1C)C(=O)c1ccccc1C2=O [YM155 (Sepantronium Bromide)] | 99.4 | 73.6
c1ccc2c(c1)CCCC2C1=NCCN1 (stereo not given) [Tetrahydrozoline HCl] | 7.63 | 7.06
CC(=O)O[C@]1(C(C)=O)CC[C@H]2[C@@H]3C=C(Cl)C4=CC(=O)[C@@H]5C[C@@H]5[C@]4(C)[C@H]3CC[C@@]21C [Cyproterone Acetate] | 20.8 | 20.8
CC(C)(C)C#Cc1cc(N(C(=O)[C@H]2CC[C@H](C)CC2)[C@H]2CC[C@H](O)CC2)c(C(=O)O)s1 [VX-222 (VCH-222, Lomibuvir)] | 35 | 11
CC(C[N+](C)(C)C)OC(N)=O (stereo not given) [Bethanechol chloride] | 26.9 | 6.72
Cc1cc(Nc2ccc(NC(=O)c3ccc(Nc4ccnc5ccccc45)cc3)cc2)nc(N)n1 | 100 | 15.4
CC(C)[C@H](C(=O)Nc1ccc(C(=O)NO)cc1)c1ccccc1 | 88.7 | 85
CCCCC(=O)N(Cc1ccc(-c2ccccc2-c2nnn[nH]2)cc1)[C@H](C(=O)O)C(C)C [Valsartan] | 46.6 | 23.3
NC1(c2ccc(-c3nc4ccn5c(=O)[nH]nc5c4cc3-c3ccccc3)cc2)CCC1 | 55.5 | 43.5
COc1cc2c(cc1OC)[C@@H]1Cc3ccc(OC)c(OC)c3CN1CC2 [Rotundine] | 40.7 | 34.6
CC[C@H]1OC(=O)[C@H](C)[C@@H](O[C@H]2C[C@@](C)(OC)[C@@H](O)[C@H](C)O2)[C@H](C)[C@@H](O[C@@H]2O[C@H](C)C[C@H](N(C)C)[C@H]2O)[C@](C)(O)C[C@@H](C)CN(C)[C@H](C)[C@@H](O)[C@]1(C)O [Azithromycin] | 49.8 | 27
CCn1cc(-c2ccnc3[nH]c(-c4cccc(CN(C)C)c4)cc23)c(-c2ccc(NC(=O)N(C)C)cc2)n1 | < 0 | 67.3
